According to PubChem BioAssay AID1745845 (National Center for Advancing Translational Sciences (NCATS), 2022):
In all, about 360,000 compounds went through this assay and about 2,600 (0.72%) were called active. The shares of active, inactive and inconclusive entries below differ from those in the screen. Calls follow the shape of the dose curve; as a rule, active = well fitted inhibition curve with a large enough effect; inconclusive = small, poorly fitted or top-dose-only effect; inactive = no such curve, though single readings can be large or run the other way. Potencies of inconclusive entries are doubtful fits and often do not repeat.

experiment: Primary qHTS for Inhibitors of ATXN expression; details: HEK-293 ATXN2-luciferase reporter, luminescence, 24 h; activity change, negative = inhibition: at 57 µM (top of the series); also: nearly all actives have a fitted effect of over 55% in size
Method in brief: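 qHTS (up to 57 uM final) was run with 24 h compound exposure of reporter cells at 37 °C. Each well was multiplexed: SteadyGlo luminescence measured ATXN2-luciferase expression after a fluorogenic Gly-Phe-AFC viability readout (25 uM final).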
% is scaled to controls: 0 for no effect and ±100 for the full control effect; potency is read from the fitted curve at half-maximal effect; tags tell the direction and shape of the fitted curve.

SMILES	Potency	activity change, negative = inhibition
CC(=O)N(C1=C(Cl)C(=O)c2ccccc2C1=O)C1CCCCC1	inconclusive: 9.47 µM [inhibitor, partial curve, poor fit]	–
c1ccc2c(c1)oc1c(NCCCn3ccnc3)ncnc12	–	inactive: 6.41%
O=C1CN(C(=O)COc2ccc(Cl)cc2Cl)C(c2ccc(F)cc2)c2cc(F)ccc2N1 (stereo not drawn)	inconclusive: 35.5 µM [inhibitor, single point]	–
Cc1c(NC(=O)OC[C@@H]2COCCN2)cn2ncnc(Nc3ccc4c(cnn4Cc4cccc(F)c4)c3)c12	inconclusive: 43.2 µM [inhibitor, partial curve, poor fit]	–
Cc1cc(SCc2ccccc2)nc(=O)[nH]1	–	inactive: 0.711%
CN1C(=O)/C(=C/c2cc(N=Nc3ccccc3)ccc2O)SC1=S	inconclusive: 31.6 µM [inhibitor, single point]	–
Cn1c(=O)c2[nH]c(COc3ccc(C(C)(C)C)cc3)nc2n(C)c1=O	–	inactive: -37.8%
Cc1ccc(C(=O)N2CCN(c3ccc(NC(=O)CSc4ccc(Cl)cc4)cc3)CC2)cc1	inconclusive: 3.16 µM [inhibitor, partial curve, poor fit]	–
C=C(C)COc1ccc2c(C)c(CC(=O)N3C[C@H]4C[C@@H](C3)c3cccc(=O)n3C4)c(=O)oc2c1C	inconclusive: 10 µM [inhibitor, partial curve, poor fit]	–
COc1cccc2sc(Nc3nnc(-c4ccccc4Cl)o3)nc12	inconclusive: 22.4 µM [inhibitor, single point]	–
CN(C)CCC(Oc1ccccc1OCc1ccccc1)c1ccccc1 (stereo not drawn)	inconclusive: 8.91 µM [inhibitor, partial curve, poor fit]	–
CCCNC(=O)CSc1nc(COc2ccccc2)nc2ccccc12	–	inactive: -18.3%
O=C(Nc1ccncc1)c1cccc(S(=O)(=O)N2CCN(c3ccc(F)cc3)CC2)c1	inconclusive: 11.2 µM [inhibitor, partial curve, poor fit]	–
Cc1ccc2nc(NCCN)c3ncc(C)n3c2c1	active: 1.93 µM	–
COc1cccc(Nc2nc(C(N)CCc3ccccc3)cs2)n1 (stereo not drawn)	active: 28.2 µM	–
COc1cc2c(cc1OC)CN(Cc1nc3ccsc3c(=O)[nH]1)CC2	inconclusive: 39.8 µM [inhibitor, single point]	–
Cc1cccc2c1-c1sc(C(=O)NCCCN3CCN(c4cccc(Cl)c4)CC3)cc1CO2	inconclusive: 25.1 µM [inhibitor, single point]	–
Cc1ccc(OCC(=O)NN=C2c3ccccc3-c3ccccc32)cc1	inconclusive: 35.5 µM [inhibitor, single point]	–
NS(=O)(=O)c1ccc(N2N=C(c3ccccc3)CC2c2ccc(F)cc2)cc1 (stereo not drawn)	inconclusive: 28.2 µM [inhibitor, single point]	–
NNC(=O)c1cc2ccccc2cc1O	inconclusive: 2.24 µM [inhibitor, partial curve]	–
Cc1ccc(C)c(S(=O)(=O)N2CCCC2CNC(=O)c2ccc([N+](=O)[O-])cc2)c1 (stereo not drawn)	inconclusive: 25.1 µM [inhibitor, single point]	–
COc1cccc(C(=O)NC(c2ccc(Cl)cc2)c2cc(Cl)c3cccnc3c2O)c1 (stereo not drawn)	inconclusive: 7.94 µM [inhibitor, partial curve, poor fit]	–

SMILES	Potency	activity change, negative = inhibition
CCn1ccnc1CN(C)C(=O)C1CCC(=O)N(Cc2cccc(F)c2)C1 (stereo not drawn)	–	inactive: -5.28%
Cc1ccc(C)c(-n2ccnc2SCC(=O)c2c(N)n(C3CC3)c(=O)[nH]c2=O)c1	–	inactive: -6.37%
COc1cc(/C=C(\C#N)c2nc3ccccc3[nH]2)c([N+](=O)[O-])cc1OCc1ccccc1	–	inactive: 0%
c1cncc(-c2nnc(SCc3cccc4ccccc34)o2)c1	inconclusive: 17.8 µM [inhibitor, partial curve, poor fit]	–
COc1cccc(C(C)(O)c2nc(-c3ccc(S(C)(=O)=O)cc3)cs2)c1 (stereo not drawn)	–	inactive: -22.5%
Cn1cc(SCC(=O)Nc2nc3ccccc3s2)c2ccccc21	active: 25.1 µM	–
Cc1ccc(Cn2c(N/N=C/c3ccncc3)nc3c2c(=O)n(C)c(=O)n3C)cc1	–	inactive: 7.88%
CCCCN(C(=O)CSc1nnc(-c2ccc(OC)cc2)n1CC)c1c(N)n(Cc2ccccc2)c(=O)[nH]c1=O	–	inactive: -21.4% [at 11.3 µM]
CCCc1cnc(Nc2nc(C(N)Cc3ccc(OC)cc3)cs2)nc1 (stereo not drawn)	inconclusive: 35.5 µM [inhibitor, single point]	–
O=C(/C=C/c1ccc(-c2ccccc2[N+](=O)[O-])o1)c1ccc(F)cc1	inconclusive: 35.5 µM [inhibitor, single point]	–
CN(C)CCNC(=O)c1cccc(-c2cnc3c(NC=O)cc(/C=C/c4ccccc4)cn23)c1	inconclusive: 31.6 µM [inhibitor, single point]	–
O=C(NC(=S)NCc1cccnc1)c1cc(Br)ccc1Cl	–	inactive: -15.1%
NNc1nc(N)c2c(n1)-c1ccccc1CC21CCCC1	inconclusive: 10 µM [inhibitor, partial curve]	–
CCn1c(COc2ccccc2C)nnc1SCC(=O)N1CCN(c2ccccc2)CC1	active: 14.1 µM	–
CCOC(=O)N1CCN(C2=C(NS(=O)(=O)c3ccccc3)C(=O)c3ccccc3C2=O)CC1	inconclusive: 12.6 µM [inhibitor, partial curve, poor fit]	–
COc1ccc(CNC(=O)C(C)OC(=O)c2cccn2C)cc1 (stereo not drawn)	inconclusive: 39.8 µM [inhibitor, partial curve, poor fit]	–
Nc1nonc1C(=O)NCCNCc1cc(Br)ccc1OCc1ccccc1F	inconclusive: 28.2 µM [inhibitor, partial curve, poor fit]	–
CC1CN(C(=O)c2cc(S(=O)(=O)N(C)c3ccc(F)cc3)ccc2Cl)CC(C)O1 (stereo not drawn)	inconclusive: 2.51 µM [inhibitor, partial curve, poor fit]	–
O=C(/C(=C/O)N=Nc1ccccc1Cl)c1ccccc1	inconclusive: 39.8 µM [inhibitor, single point]	–
CCn1c(C)nc2cc(C(=O)NNC(=O)c3ccc(C)cc3)ccc21	–	inactive: 18.9%
CC1=C(C(=O)N2CCCCCC2)CC(CC(=O)NC2CCCC2)C(=O)N1Cc1ccccc1 (stereo not drawn)	–	inactive: 3.65%
